# The supplement of paper PMC8728848
# Some of the results follow.
# B1: BC2L-A (Burkholderia cenocepacia), Q1BKJ8_BURCA (protein)
# chain: ADSQTSSNRAGEFSIPPNTDFRAIFFANAAEQQHIKLFIGDSQEPAAYHKLTTRDGPREATLNSGNGKIRFEVSVNGKPSATDARLAPINGKKSDGSPFTVNFGIVVSEDGHDSDYNDGIVVLQWPIG
# Experiments:
# Assay in all cases: glycan array binding signal (z-score within array); higher = stronger binding
# Details in all cases: glycan notation: IUPAC condensed, linker removed
# [1] = target: Neu5Ac(a2-6)Gal(b1-4)GlcNAc(b1-2)Man(a1-3)Man(b1-4)GlcNAc(b1-4)GlcNAc
# In short: (§1)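 The Consortium for Functional Glycomics database supplied 3228 glycan arrays, of which those lacking an available protein sequence were dropped. The binding signal, a within-array Z-score, was averaged across arrays of the same protein sequence and across linkers. Negative scores can be read as non-binding.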
# [2] = target: Neu5Ac(a2-6)Gal(b1-4)GlcNAc(b1-2)Man(a1-3)[Gal(b1-4)GlcNAc(b1-2)Man(a1-6)]Man(b1-4)GlcNAc(b1-4)GlcNAc
# In short: as §1
# [3] = target: Neu5Ac(a2-6)Gal(b1-4)GlcNAc(b1-2)Man(a1-3)[GlcNAc(b1-2)Man(a1-6)]Man(b1-4)GlcNAc(b1-4)GlcNAc
# In short: as §1
# [4] = target: Neu5Ac(a2-6)Gal(b1-4)GlcNAc(b1-2)Man(a1-3)[GlcNAc(b1-2)Man(b1-4)GlcNAc(b1-2)Man(a1-6)]Man(b1-4)GlcNAc(b1-4)GlcNAc
# In short: as §1
# [5] = target: Neu5Ac(a2-6)Gal(b1-4)GlcNAc(b1-2)Man(a1-3)[Man(a1-6)]Man(b1-4)GlcNAc(b1-4)GlcNAc
# In short: as §1
# [6] = target: Neu5Ac(a2-6)Gal(b1-4)GlcNAc(b1-2)Man(a1-3)[Neu5Ac(a2-6)Gal(b1-4)GlcNAc(b1-2)Man(a1-6)]Man(b1-4)GlcNAc(b1-4)GlcNAc
# In short: as §1
# [7] = target: Neu5Ac(a2-6)Gal(b1-4)GlcNAc(b1-2)Man(a1-6)Man(b1-4)GlcNAc(b1-4)GlcNAc
# In short: as §1
# [8] = target: Neu5Ac(a2-6)Gal(b1-4)GlcNAc(b1-2)Man(a1-6)[Gal(b1-4)GlcNAc(b1-2)Man(a1-3)]Man(b1-4)GlcNAc(b1-4)GlcNAc
# In short: as §1
# [9] = target: Neu5Ac(a2-6)Gal(b1-4)GlcNAc(b1-2)Man(a1-6)[GlcNAc(b1-2)Man(a1-3)]Man(b1-4)GlcNAc(b1-4)GlcNAc
# In short: as §1
# [10] = target: Neu5Ac(a2-6)Gal(b1-4)GlcNAc(b1-2)Man(a1-6)[Man(a1-3)]Man(b1-4)GlcNAc(b1-4)GlcNAc
# In short: as §1
# [11] = target: Neu5Ac(a2-6)Gal(b1-4)GlcNAc(b1-3)Gal(b1-3)GlcNAc
# In short: as §1
# [12] = target: Neu5Ac(a2-6)Gal(b1-4)GlcNAc(b1-3)Gal(b1-4)GlcNAc
# In short: as §1
# [13] = target: Neu5Ac(a2-6)Gal(b1-4)GlcNAc(b1-3)Gal(b1-4)GlcNAc(b1-3)Gal(b1-4)GlcNAc
# In short: as §1
# [14] = target: Neu5Ac(a2-6)Gal(b1-4)GlcNAc(b1-3)Gal(b1-4)[Fuc(a1-3)]GlcNAc(b1-3)Gal(b1-4)[Fuc(a1-3)]GlcNAc
# In short: as §1
# [15] = target: Neu5Ac(a2-6)Gal(b1-4)GlcNAc(b1-3)GalNAc
# In short: as §1
# [16] = target: Neu5Ac(a2-6)Gal(b1-4)GlcNAc6S
# In short: as §1
# Neu5Ac(a2-6)GalNAc = target: Neu5Ac(a2-6)GalNAc
# In short: as §1
# [17] = target: Neu5Ac(a2-6)GalNAc(b1-4)GlcNAc
# In short: as §1
# [18] = target: Neu5Ac(a2-6)GlcNAc(b1-4)GlcNAc
# In short: as §1
# [19] = target: Neu5Ac(a2-6)GlcNAc(b1-4)GlcNAc(b1-4)GlcNAc
# In short: as §1
# Neu5Ac(a2-8)Neu5Ac = target: Neu5Ac(a2-8)Neu5Ac
# In short: as §1
# [20] = target: Neu5Ac(a2-8)Neu5Ac(a2-3)Gal(b1-3)GalNAc(b1-4)[Neu5Ac(a2-8)Neu5Ac(a2-3)]Gal(b1-4)Glc
# In short: as §1
# [21] = target: Neu5Ac(a2-8)Neu5Ac(a2-3)Gal(b1-4)Glc
# In short: as §1
# [22] = target: Neu5Ac(a2-8)Neu5Ac(a2-3)[Gal(b1-3)GalNAc(b1-4)]Gal(b1-4)Glc
# In short: as §1
# [23] = target: Neu5Ac(a2-8)Neu5Ac(a2-3)[GalNAc(b1-4)]Gal(b1-4)Glc
# In short: as §1
# [24] = target: Neu5Ac(a2-8)Neu5Ac(a2-8)Neu5Ac
# In short: as §1
# [25] = target: Neu5Ac(a2-8)Neu5Ac(a2-8)Neu5Ac(a2-3)Gal(b1-4)Glc
# In short: as §1
# [26] = target: Neu5Ac(a2-8)Neu5Ac(a2-8)Neu5Ac(a2-3)[GalNAc(b1-4)]Gal(b1-4)Glc
# In short: as §1
# [27] = target: Neu5Ac(a2-8)Neu5Ac(a2-8)Neu5Ac(a2-8)Neu5Ac(a2-3)[GalNAc(b1-4)]Gal(b1-4)Glc
# In short: as §1
# Neu5Ac(b1-6)GalNAc = target: Neu5Ac(b1-6)GalNAc
# In short: as §1
# [28] = target: Neu5Ac(b2-6)Gal(b1-4)GlcNAc
# In short: as §1
# Neu5Ac(b2-6)GalNAc = target: Neu5Ac(b2-6)GalNAc
# In short: as §1
# [29] = target: Neu5Ac9Ac(a2-3)Gal(b1-3)GlcNAc
# In short: as §1
# [30] = target: Neu5Ac9Ac(a2-3)Gal(b1-4)GlcNAc
# In short: as §1
# [31] = target: Neu5Ac9Ac(a2-6)Gal(b1-4)GlcNAc
# In short: as §1
# [32] = target: Neu5Gc(a2-3)Gal(b1-3)GlcNAc
# In short: as §1
# [33] = target: Neu5Gc(a2-3)Gal(b1-3)[Fuc(a1-4)]GlcNAc
# In short: as §1
# Neu5Gc(a2-3)Gal(b1-4)Glc = target: Neu5Gc(a2-3)Gal(b1-4)Glc
# In short: as §1
# [34] = target: Neu5Gc(a2-3)Gal(b1-4)GlcNAc
# In short: as §1
# [35] = target: Neu5Gc(a2-3)Gal(b1-4)[Fuc(a1-3)]GlcNAc
# In short: as §1
# [36] = target: Neu5Gc(a2-6)Gal(b1-4)GlcNAc
# In short: as §1
# Neu5Gc(a2-6)GalNAc = target: Neu5Gc(a2-6)GalNAc
# In short: as §1
# [37] = target: Neu5Gc(b2-6)Gal(b1-4)GlcNAc
# In short: as §1
binder,measurement,setting,value
B1,glycan array binding signal (z-score),[1],-0.285
same,glycan array binding signal (z-score),[2],-0.288
same,glycan array binding signal (z-score),[3],-0.111
same,glycan array binding signal (z-score),[4],-0.28
same,glycan array binding signal (z-score),[5],2.25
same,glycan array binding signal (z-score),[6],-0.261
same,glycan array binding signal (z-score),[7],-0.238
same,glycan array binding signal (z-score),[8],-0.298
same,glycan array binding signal (z-score),[9],-0.292
same,glycan array binding signal (z-score),[10],3.3
same,glycan array binding signal (z-score),[11],-0.296
same,glycan array binding signal (z-score),[12],-0.294
same,glycan array binding signal (z-score),[13],-0.298
same,glycan array binding signal (z-score),[14],-0.019
same,glycan array binding signal (z-score),[15],-0.205
same,glycan array binding signal (z-score),[16],-0.286
same,glycan array binding signal (z-score),Neu5Ac(a2-6)GalNAc,-0.291
same,glycan array binding signal (z-score),[17],-0.291
same,glycan array binding signal (z-score),[18],-0.298
same,glycan array binding signal (z-score),[19],-0.297
same,glycan array binding signal (z-score),Neu5Ac(a2-8)Neu5Ac,-0.287
same,glycan array binding signal (z-score),[20],-0.219
same,glycan array binding signal (z-score),[21],-0.292
same,glycan array binding signal (z-score),[22],-0.216
same,glycan array binding signal (z-score),[23],-0.265
same,glycan array binding signal (z-score),[24],-0.246
same,glycan array binding signal (z-score),[25],-0.253
same,glycan array binding signal (z-score),[26],-0.086
same,glycan array binding signal (z-score),[27],-0.227
same,glycan array binding signal (z-score),Neu5Ac(b1-6)GalNAc,-0.249
same,glycan array binding signal (z-score),[28],-0.265
same,glycan array binding signal (z-score),Neu5Ac(b2-6)GalNAc,-0.299
same,glycan array binding signal (z-score),[29],-0.298
same,glycan array binding signal (z-score),[30],-0.294
same,glycan array binding signal (z-score),[31],-0.282
same,glycan array binding signal (z-score),[32],-0.292
same,glycan array binding signal (z-score),[33],-0.214
same,glycan array binding signal (z-score),Neu5Gc(a2-3)Gal(b1-4)Glc,-0.287
same,glycan array binding signal (z-score),[34],-0.292
same,glycan array binding signal (z-score),[35],-0.287
same,glycan array binding signal (z-score),[36],-0.291
same,glycan array binding signal (z-score),Neu5Gc(a2-6)GalNAc,-0.29
same,glycan array binding signal (z-score),[37],-0.287
